From PMC4336329 (PLoS ONE, 2015)
In all, about 310,000 compounds went through this assay and about 14,000 (4.5%) showed an effect of 50% or more. The effect is printed as a negative number. The list shows a part of the results.

These compounds were tested against human ether-à-go-go-related gene (hERG) potassium channel (human, UniProt Q12809) (assay: primary screen, population patch clamp on CHO cells stably expressing hERG).
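Further: peak tail current of the secondary pulse compared with the same well before compound.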

Sequence of human ether-à-go-go-related gene (hERG) potassium channel (Q12809 whole entry, looked up): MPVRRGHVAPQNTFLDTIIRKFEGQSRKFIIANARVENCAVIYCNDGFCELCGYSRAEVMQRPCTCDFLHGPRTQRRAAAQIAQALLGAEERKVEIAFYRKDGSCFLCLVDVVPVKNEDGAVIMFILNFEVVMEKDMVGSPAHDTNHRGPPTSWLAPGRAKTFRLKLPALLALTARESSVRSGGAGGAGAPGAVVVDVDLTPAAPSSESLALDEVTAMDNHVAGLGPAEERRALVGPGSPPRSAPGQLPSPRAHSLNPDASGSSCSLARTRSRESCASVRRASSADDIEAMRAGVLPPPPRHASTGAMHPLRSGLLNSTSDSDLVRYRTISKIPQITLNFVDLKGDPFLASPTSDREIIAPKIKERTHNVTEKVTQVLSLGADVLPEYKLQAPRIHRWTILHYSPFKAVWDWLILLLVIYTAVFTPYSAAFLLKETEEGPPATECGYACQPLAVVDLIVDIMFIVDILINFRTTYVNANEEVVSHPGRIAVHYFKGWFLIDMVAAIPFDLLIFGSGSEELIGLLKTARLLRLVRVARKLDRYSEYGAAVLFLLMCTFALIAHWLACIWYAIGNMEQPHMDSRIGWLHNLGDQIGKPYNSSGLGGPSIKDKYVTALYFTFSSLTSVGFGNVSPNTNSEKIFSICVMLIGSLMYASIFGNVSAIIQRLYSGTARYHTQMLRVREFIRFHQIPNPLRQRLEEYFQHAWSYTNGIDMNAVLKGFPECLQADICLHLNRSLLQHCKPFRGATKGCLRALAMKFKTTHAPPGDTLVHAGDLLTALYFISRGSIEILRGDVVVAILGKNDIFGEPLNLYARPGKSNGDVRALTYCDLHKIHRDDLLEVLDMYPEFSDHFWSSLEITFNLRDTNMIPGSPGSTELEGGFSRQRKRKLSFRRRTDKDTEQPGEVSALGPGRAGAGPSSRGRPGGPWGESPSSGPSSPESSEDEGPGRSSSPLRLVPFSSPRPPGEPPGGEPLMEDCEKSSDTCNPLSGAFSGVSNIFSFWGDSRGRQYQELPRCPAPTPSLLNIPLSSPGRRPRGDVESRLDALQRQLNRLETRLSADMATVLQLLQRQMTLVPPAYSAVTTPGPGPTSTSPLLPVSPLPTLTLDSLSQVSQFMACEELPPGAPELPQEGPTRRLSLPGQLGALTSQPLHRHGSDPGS

Compared with `Cn1ncc(Br)c1C(=O)N/N=C/c1ccc(OS(=O)(=O)c2ccccc2)cc1`, `Cc1ccc(-c2cc(C(=O)N/N=C/c3ccc([N+](=O)[O-])o3)c3ccccc3n2)o1` is lower in “hERG current change (%, negative = inhibition) at 10uM” value: -7.68% for the first, -15.9% for the second.

First: CSCC[C@H](NC(=O)OC(C)(C)C)C(=O)N/N=C/c1cccc2nccnc12
Second: COc1ccc(/C=N/NC(=O)c2ccc(Cl)cc2)cc1COC(C)=O
The “hERG current change (%, negative = inhibition) at 10uM” value of the first is higher: -0.945% for the first, -6.17% for the second.

First: CC(NC(=O)c1ccco1)C(=O)N1CCN(c2ccccc2)CC1 (stereo not drawn)
Second: CCc1ccc(NC(=S)N2CCN(c3cccc(OC)c3)CC2)cc1
The “hERG current change (%, negative = inhibition) at 10uM” value of the first is higher: 22% for the first, 17.4% for the second.

Compared with `COc1ccc(C(=O)OCC(=O)N2CCCCC2)cc1[N+](=O)[O-]`, `CC1CCCN(C(=O)COC(=O)Cc2ccc(Cl)cc2)C1` (stereo not drawn) is higher in “hERG current change (%, negative = inhibition) at 10uM” value: -1.01% for the first, 12.6% for the second.

First: COc1ccc(Nc2nc(N3CCN(S(C)(=O)=O)CC3)nc3ccccc23)c(OC)c1
Second: COc1cc(C(=O)OCC2CC(c3ccccc3)=NO2)cc(OC)c1OC (stereo not drawn)
The “hERG current change (%, negative = inhibition) at 10uM” value of the first is higher: -22.7% for the first, -41.8% for the second.

Compared with `CN1C(C(=O)NCc2ccco2)=CC(c2ccc(F)cc2)=NS1(=O)=O`, `Cc1ccc(C(=O)C2=C(O)C(=O)N(c3ncccn3)C2c2ccc(F)cc2)o1` (stereo not drawn) is higher in “hERG current change (%, negative = inhibition) at 10uM” value: -34.2% for the first, 25.6% for the second.

Compared with `c1ccc(-c2cn3c(n2)SCC3)cc1`, `Fc1ccccc1N=C1NN=C(c2ccccc2)CS1` is higher in “hERG current change (%, negative = inhibition) at 10uM” value: -1.31% for the first, 23.2% for the second.

Compared with `CCOC(=O)N1CCN(c2cc(=O)n(C3CCCCC3)c(=O)[nH]2)CC1`, `Cc1cccn2c(=O)nc(SCC(=O)NC3CCCCC3)nc12` is lower in “hERG current change (%, negative = inhibition) at 10uM” value: -2.42% for the first, -14.8% for the second.

Going from `Cc1ccc(-n2c(C)cc(C(=O)CSc3n[nH]c(N)n3)c2C)cc1` to `CC(=O)c1c(C)nc(-c2ccc(Cl)cc2)nc1N`, the “hERG current change (%, negative = inhibition) at 10uM” value falls from 5% to 0.695%.

Going from `Nc1cc(Cl)ccc1N1CCOCC1` to `Cl.O=C(CN1C2=NCCN2c2ccccc21)N1CCOCC1`, the “hERG current change (%, negative = inhibition) at 10uM” value rises from -1.57% to 9.79%.

Going from `COc1ccc(NC(=O)CN2CCN(Cc3ccc4c(c3)OCO4)CC2)cc1OC.O=C(O)C(=O)O` to `Cn1nnc2cc(NC(=O)NCc3ccc4c(c3)OCO4)ccc21`, the “hERG current change (%, negative = inhibition) at 10uM” value rises from -17.4% to 11%.

Going from `COCCCN1CN(Cc2ccccc2)CNC1=S` to `O=C1NC(=O)N(Cc2ccccc2)C1=O`, the “hERG current change (%, negative = inhibition) at 10uM” value rises from 5.46% to 26.4%.

Compared with `COc1ccc(CN2CC(C(=O)NCCCN3CCN(C)CC3)CC2=O)cc1` (stereo not drawn), `CCOc1ccc(NC(=O)CCN2CCN(S(=O)(=O)c3ccc(Cl)cc3)CC2)cc1` is lower in “hERG current change (%, negative = inhibition) at 10uM” value: 3.03% for the first, -26.7% for the second.

Compared with `Cc1ccccc1-n1c(SCC(=O)Nc2cccc3ccccc23)nc(O)cc1=O`, `O=C(Cc1cccs1)Nc1ccccc1-c1nc2ccccc2[nH]1` is higher in “hERG current change (%, negative = inhibition) at 10uM” value: 15.4% for the first, 19.7% for the second.

First: CC1(C)COC2(OC1)C(=O)Nc1ccccc12
Second: O=C1Nc2cc(Br)ccc2C1(O)c1ccccc1O (stereo not drawn)
The “hERG current change (%, negative = inhibition) at 10uM” value of the first is higher: 26.6% for the first, 21.8% for the second.

First: CCN1c2ccccc2-c2nc3ccccc3n2C1c1ccccn1 (stereo not drawn)
Second: CCn1c(NC(C)=O)c(-c2ccccc2Cl)c(=O)c2ccccc21
The “hERG current change (%, negative = inhibition) at 10uM” value of the first is lower: -37.9% for the first, 24.5% for the second.

First: CC(=O)C1=C(C)NC(SCc2cccc([N+](=O)[O-])c2)=C(C#N)C1c1ccco1 (stereo not drawn)
Second: CC(=O)N1N=C(c2ccco2)CC1c1cc2ccc(C)cc2nc1Cl (stereo not drawn)
The “hERG current change (%, negative = inhibition) at 10uM” value of the first is lower: -19.6% for the first, 12.2% for the second.

First: COc1ccc(C(=O)N/C(=C\c2ccc3c(c2)OCO3)C(=O)N2CCOCC2)cc1
Second: C[C@H](NS(=O)(=O)c1ccc2c(c1)OCCCO2)C(=O)N1CCN(Cc2ccc(C#N)cc2)CC1
The “hERG current change (%, negative = inhibition) at 10uM” value of the first is higher: 19.6% for the first, -61.1% for the second.

Compared with `O=C1CS(=O)CN1c1ccc(Oc2ccccc2)cc1` (stereo not drawn), `CCCCC1C2C(=O)N(c3ccccc3)C(=O)C2ON1c1ccccc1` (stereo not drawn) is higher in “hERG current change (%, negative = inhibition) at 10uM” value: -6.64% for the first, 2.38% for the second.

Compared with `O=C(Nn1c(-c2ccc(Br)cc2)nc2ccccc2c1=O)c1ccncc1`, `Cc1ccccc1-c1nc(-c2ccc(NC(=O)c3ccc(Br)o3)cc2)no1` is lower in “hERG current change (%, negative = inhibition) at 10uM” value: 20.2% for the first, 3.28% for the second.

Going from `COC(=O)C1=C(c2ccc(OC)c(OC)c2)C[C@@H]2CC[C@H]1N2C(=O)NC(C)C` to `COc1cc(NC(=O)c2cc(C(C)C)on2)cc(OC)c1OC`, the “hERG current change (%, negative = inhibition) at 10uM” value falls from 19.6% to 3.31%.

Compared with `CC1(C)Cc2c(sc(NC(=O)c3ccccc3)c2C(=O)O)CO1`, `CC(=O)NC(CC(=O)Nc1cccc(S(=O)(=O)N2CCCC2)c1)c1ccccc1` (stereo not drawn) is lower in “hERG current change (%, negative = inhibition) at 10uM” value: 19.5% for the first, 4.19% for the second.

Compared with `O=C(NCc1cccnc1)C1CC2c3ccccc3C1c1ccccc12` (stereo not drawn), `O=C(COc1ccccc1F)Nc1ccccc1C(=O)NC1CC1` is lower in “hERG current change (%, negative = inhibition) at 10uM” value: -5.76% for the first, -32.8% for the second.

Compared with `Clc1ccc(CSc2nncn2-c2ccccn2)cc1`, `O=C(Nc1cccc(Cl)c1)c1ccc(-n2cncn2)c([N+](=O)[O-])c1` is lower in “hERG current change (%, negative = inhibition) at 10uM” value: -28.7% for the first, -35% for the second.

First: CCCCS(=O)(=O)N1CCCC(C(=O)Oc2ccccc2OC)C1 (stereo not drawn)
Second: COc1ccccc1CNC(=O)CN1CCC(NC(=O)c2ccccc2F)CC1.Cl
The “hERG current change (%, negative = inhibition) at 10uM” value of the first is higher: 13.1% for the first, -14.5% for the second.

First: COc1nc2ccccc2nc1CCC(=O)O
Second: O=c1cc(CN2CCc3ccccc32)nc2sccn12
The “hERG current change (%, negative = inhibition) at 10uM” value of the first is higher: 17.9% for the first, 2.78% for the second.

Compared with `CCN1C(=O)N(CC)c2cccc3cccc1c23`, `Cc1cc2oc(C(=O)NCCc3ccc(S(N)(=O)=O)cc3)cc(=O)c2cc1C` is higher in “hERG current change (%, negative = inhibition) at 10uM” value: 9.55% for the first, 17.2% for the second.

Compared with `COc1ccc(NC(=O)CN2C(=O)NC(C)(C3CC3)C2=O)cc1S(=O)(=O)N1CCOCC1` (stereo not drawn), `COc1ccc(NC(=O)C2C3C=CC4(O3)C2C(=O)N(CCN2CCCCC2C)C4C(=O)NC2CCCCC2)cc1` (stereo not drawn) is lower in “hERG current change (%, negative = inhibition) at 10uM” value: 18.2% for the first, 9.93% for the second.

In the case of `CCOCC(=O)Nc1ccc([N+](=O)[O-])cc1C`, the “hERG current change (%, negative = inhibition) at 10uM” value is reported as 5.75%.
